Results reported in the supplement of paper PMC10338343.
± gives the standard deviation. This is a selection; strong and weak results do not stand in their true shares.

test system: MIWI (PIWIL1) piRISC loaded with piRNA #1 (30 nt); assay: pre-steady-state target cleavage rate (min^-1); MIWI and MILI are mouse PIWI proteins and EfPiwi is from a freshwater sponge; tags in brackets are library labels; higher = faster piRNA-guided slicing of the target; conditions: guide: piRNA #1 5'p-UGAGGUAGUAGGUUGUAUAGUAUCCAGAGG; auxiliary factor: 500 nM mouse GTSF1
Summary of the method: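 For Cleave-'n-Seq, a transcribed, DNA-blocked target RNA library […] met 1 nM active affinity-purified piRISC with one synthetic guide at 33 °C for 0–8 or 0–960 min in HEPES–potassium acetate buffer, with or without 500 nM GTSF1 partner protein. Uncleaved targets were sequenced and normalised to depth and weakly complementary targets, with three trials pooled and k3 capped at 0.0001 min^-1. A burst-and-steady-state fit supplied the pre-steady-state cleavage rate.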
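Note: 1 nM active piRISC with 0.1 nM target library at 33 °C single turnover.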

Row | Sequence | pre-steady-state target cleavage rate
1 | GGACUGCAAACUAUACAACCUACUACCUCA | 0.971 ± 0.094
2 | CCUCUGGUUACUAUACAACCUACUAGCUCA | 0.705 ± 0.055
3 | CCUCUGGAAACUAUACAACCUACAACCUCA | 1.79 ± 0.19
4 | GCUCUGGAUACUAUACAUCCUACUACCUGA | 0.939 ± 0.11
5 | GGAGAGGAUACUAUACAACCAAGUACCUCA | 0.0212 ± 0.0052
6 | CCUCUGGAUACUAUACAACCUAAUACCUCA | 1.61 ± 0.1
7 | GCUCUGGAUACAAUACAACCUACUACCUCA | 1.73 ± 0.1
8 | GGAGACCUUAUUAUACAACCUACUACCUCA | 1.46 ± 0.13
9 | GGAGACCAAACUAUACUACCUACUACCUCA | 0.185 ± 0.03
10 | CCUCUGGUUACUAUACAACCUAGUACCUCA | 0.232 ± 0.043
11 | GGAGACCUAUCUAUACAACCUAGUUCCUCA | 0.0159 ± 0.0051
12 | GGAGUGGAUACUAUACAACCUACUUGCUCA | 0.00341 ± 0.0031
13 | GGUCUGGGAUACUAUACAACCUACUACCUCA | 1.88 ± 0.1
14 | GGAGACCUAACUAUACUACCUACUACCUGA | 0.0795 ± 0.023
15 | CCUCUGGAUACUAUUCAACCUUCUACCUCA | 0.624 ± 0.032
16 | GGAGACCUUACUAUAGAACCUACUACCUGA | 0.155 ± 0.03
17 | GGAGAGGAUACUAUUCAACCAACUACCUCA | 0.0896 ± 0.007
18 | GGAGACCUGACUAUACAACCUACUACCUCA | 1.27 ± 0.17
19 | GGACUGGAUACUAUACAGCCUACUACCUCA | 0.707 ± 0.034
20 | GGAGACCUAUGUAUGCAACCUACUACCUCA | 0.0455 ± 0.0073

Row | Sequence | pre-steady-state target cleavage rate
21 | GGAGAGGAUACUAUACAAGGAACUACCUCA | 0.00447 ± 0.0029
22 | GGAGACCUUACUAUACAACCUACUCCCUCA | 0.863 ± 0.072
23 | GGAGACCAUACUAUAGAACCUUCUACCUCA | 0.134 ± 0.023
24 | GGACUGGAUUCUAUACAACCAACUACCUCA | 0.106 ± 0.011
25 | GGAUUGGAUACUAUACAACCUACUACCUCA | 1.77 ± 0.095
26 | GGAGACGAUACUAUACAACCUAGAACCUCA | 0.283 ± 0.049
27 | CCUCAGGAUACUAUACUACCUACUACCUCA | 1.87 ± 0.12
28 | GGAGUGGAUACUAUACAACCUACUACCCCA | 0.544 ± 0.081
29 | GGAGACCUAACUAUACAACCUACGUACCUCA | 0.234 ± 0.03
30 | GCUCUUGGAUACUAUACAACCUACUACCUCA | 2.1 ± 0.1
31 | GGUCUGGAAACUAUACAACCUUCUACCUCA | 0.829 ± 0.052
32 | GGAGACGAUACUAUACAACCUACUAGGUCA | 0.00566 ± 0.0033
33 | GGAGACCUAUCUAUAGAACCUACUACCUCA | 0.599 ± 0.06
34 | GGAGACCAUGACUAUACAACCUACUACCUCA | 1.58 ± 0.14
35 | CCUCUGGAUCACUAUACAACCUACUACCUCA | 1.1 ± 0.093
36 | GGUGUGGAUACUAUACAACCUUCUACCUCA | 0.734 ± 0.033
37 | GGUCUGGAUACUAUACACCCUACUACCUCA | 1.83 ± 0.096
38 | GGAGACCUAAGUAUACAACCUACUACCUGA | 0.0479 ± 0.014
39 | GGAGUGGAUACAAUACAUCCUACUACCUCA | 0.837 ± 0.048
